Measurements taken from PubChem BioAssay AID1508624 (National Center for Advancing Translational Sciences (NCATS), 2021).
The campaign covered roughly 48,000 compounds. About 120 (0.25%) were called active. Inconclusive results (about 4%) are left out. Calls follow the shape of the dose curve; as a rule, active = well fitted activation curve with a large enough effect; inconclusive = small, poorly fitted or top-dose-only effect, or another doubt; inactive = no such curve, though single readings can be large or run the other way. The list shows a part of the results.

assay: Primary qHTS for Identification of Small Molecule Activators of Huntingtin-Antisense Promoter Activity; conditions: HEK293 HTT-AS promoter firefly luciferase reporter, 24 h; series mostly up to 57.5 µM; activity change, positive = activation: at the top concentration; also: nearly all actives have a fitted effect of over 55% in size
Outline: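 Luminescence was read after Dual-Glo reagent and a 10 min room-temperature incubation. Values were normalized to vehicle (0% activity) and zero RLU (-100% activity). Reporter HEK293 cells had been exposed to compounds (up to 57.5 uM final) for 24 h.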

Activity change, positive = activation, inactive:
Cc1cccc(OCC(=O)NCc2ccc3c(c2)CCN3C(=O)c2ccccc2)c1 -8.67%
CCC(C)NC(=O)c1sc2nc(C)c(C(=O)Nc3ccc(C)cc3C)c(-c3ccc(Br)cc3)c2c1N (stereo unspecified) -5.61%
COc1cc(C2NC(=O)N(C)C3=C2C(=O)N(c2ccccc2)C3)ccc1O (stereo unspecified) 1.16%
Cc1ccc2[nH]c(=O)c3cc(C(=O)N4CCN(c5ccccc5F)CC4)sc3c2c1 -5.3%
COc1ccc(-c2cnc(NCc3ccc(C)cc3)n2C)cc1 -15.7%
O=C(CSc1nc(-c2ccccc2)cc(=O)[nH]1)Nc1ccccc1F -3.01%
CC1=C(C(=O)Nc2ccc(C)c(C)c2)C2(CCCCCC2)OC1=O -23.3%
COc1ccc(CCNC(=O)CSc2nc3ccccc3nc2Cc2ccc(C)cc2)cc1OC -17.1%
COc1ccccc1CNC(=O)c1nn(-c2ccc(C)cc2)c(=O)c2c1c1ccccc1n2C -2.23%
Cc1cccc(CSc2ncc(Cl)c(C(=O)Nc3sc4c(c3C#N)CCCC4)n2)c1 -3.44%
CCN(CC)c1nc2c(S(=O)(=O)c3ccc(C)cc3)nnn2c2ccsc12 -15.9%
COc1ccccc1NC(=O)CSc1oc(-c2cccs2)nc1S(=O)(=O)c1ccc(C)cc1 -0.81%
O=C(NCc1ccccc1)c1cccc(NC(=O)N2CCSc3ncccc32)c1 -10.4%
CCN(CC)CCOc1ccc(C(O)(Cc2ccc(Cl)cc2)c2ccc(C)cc2)cc1 (stereo unspecified) -4.98%
CCc1cccc(CC)c1NC(=O)Cc1csc(C)n1 -9.17%
Cc1cccc(CN2C(=O)c3ccccc3Sc3ccc(C(=O)NCCc4ccccc4)cc32)c1 -21.9%
CCC(=O)N1CCc2cc(CNS(=O)(=O)c3ccc(Cl)s3)ccc21 -28.3%
Cc1cc(Nc2cccc(F)c2)n2nc(-c3ccco3)nc2n1 -7.28%
COc1ccc(/C=C/C(=O)Nc2ccc(Cl)c(Cl)c2)cc1OC -2.46%
O=C(Cn1c(=O)oc2cc(S(=O)(=O)NCc3ccccc3)ccc21)NCc1ccc(F)cc1 -21.1%
CCOc1ccc(NC(=O)c2cc(CN3CCCC3)on2)cc1 -9.22%
O=C(Cn1nc(C(F)(F)F)c2c1CCCC2)Nc1ccc(F)c(Cl)c1 -56.1%
COc1ccc(-c2ccc(=O)n(CC(=O)Nc3ccc(N(C)C)cc3)n2)cc1 1.98%
Cc1c(C(=O)NCc2ccc(F)cc2)sc2nc3n(c(=O)c12)CCC3 -6.45%
CSc1ccc(C2c3c(oc4ccc(F)cc4c3=O)C(=O)N2c2ccc(C)cn2)cc1 (stereo unspecified) -1.06%
Cc1c(NC(=O)c2cc3ccccc3o2)cccc1-c1nc2ccccc2o1 -27.1%
Cc1ccc2nc(Nc3ccc(Br)cc3)nc(-c3ccccc3)c2c1 -13.8%
Cc1cccc(N(C)C(=O)C2CCN(S(=O)(=O)c3cccc4nonc34)CC2)c1 -16.7%
CCCCc1nn2c(=O)cc(COC(=O)CNC(=O)c3ccccc3C)nc2s1 -19.8%
CCOc1ccc2oc(=O)cc(CN3CCN(C(=O)c4ccc(Cl)cc4)CC3)c2c1 -33.4%
COc1ccc(OC)c(NC(=O)Cn2cc(C(=O)c3cccs3)c3ccccc32)c1 -29.1%
O=S(=O)(Nc1c(F)cccc1F)c1ccc2c(c1)OCCO2 -10.1%
Cc1ccc2oc(C(=O)Nc3c(C(=O)c4ccc(C)c(F)c4)oc4ccccc34)cc(=O)c2c1 3.17% [at 11.5 µM, percent change from vehicle, -100% = no light]
COc1ccc(C)cc1NC(=O)C(CCSC)NS(=O)(=O)c1ccc2c(c1)oc(=O)n2C (stereo unspecified) -24%
CCn1nnc2cc(C(=O)Nc3cccc(C(F)(F)F)c3)ccc21 6.7%
CCOC(=O)N1CCc2c(sc3c2c(=O)n(Cc2ccccc2)c(=O)n3CC(=O)Nc2ccccc2F)C1 -13.5%
CC(C)NC(=O)c1cnc2sc(N3CCCCCC3)nn2c1=O 9.27%
CCOC(=O)c1c(C)[nH]c(CCC(=O)Nc2ccc(N(CC)CC)cc2C)c1C -17.7%
COc1ccc(CN(C(=O)Nc2ccccc2)c2ccccn2)cc1OC 0.891%
Cc1ccc(S(=O)(=O)N(Cc2nc(-c3ccc(Cl)cc3)no2)C2CCCCC2)cc1 -26.2%
Cc1ccc(C)c(N2CCN(C(=O)C3CCN(Cc4nc(-c5cccc(Cl)c5)oc4C)CC3)CC2)c1 -33.9%
NC(=O)C1(N2CCCCC2)CCN(C(=O)Nc2ccc(Cl)c(Cl)c2)CC1 -8.89%
COc1cccc(NC(=O)c2sc3nc(C)c(C(=O)Nc4ccc(C)cc4C)c(-c4ccc(Br)cc4)c3c2N)c1 -8.21%
Cc1cc(Cl)ccc1NC(=O)C1CCN(S(=O)(=O)c2ccc3[nH]c(=O)ccc3c2)CC1 -12.5%
Cc1ccc2nc(SC(Cc3cc(Cl)ccc3Cl)C(=O)O)[nH]c2c1 (stereo unspecified) -9.32%
COc1ccc(CNC(=O)c2cc3sccc3n2C)cc1 8.11%
Cc1cccc(Cn2c(=O)n(CCc3ccccc3)c(=O)c3sc4ccccc4c32)c1 2.32%
Cc1ccc(CCNC(=O)CCSCc2ccccc2F)cc1 -2.4%
O=C(CCOc1ccccc1)N(Cc1cccnc1)c1nc2c(Cl)cccc2s1 -20.5%
Cc1ccc(C2c3[nH]c4ccccc4c3CCN2C(=O)c2ccc(N(C)C)cc2)cc1 (stereo unspecified) -27.8%
Cc1cc(NC(=O)c2ccc(Cl)c(Cl)c2)ccc1-c1cc2ccccc2oc1=O 13.2%
COc1ccc(NC(=O)Cn2c(=O)n(-c3ccccc3)c(=O)c3ccc(C(=O)NCc4ccc5c(c4)OCO5)cc32)cc1 -11.5%
Oc1cccc(Nc2nc(-c3ccccc3)nc3ccccc23)c1 -8%
CC1(C)C(=O)N(CC(=O)Nc2ccc(OC(F)(F)F)cc2)c2ccccc21 -11.3%
CCCSc1ncc(Cl)c(C(=O)Nc2ccc(CC)cc2)n1 -21.3%
Cc1ccc(CNC(=O)CSc2nc3ccsc3c(=O)n2-c2ccc(C(=O)O)cc2)cc1 -7.95%
CCN(CCCNC(=O)c1cc2cc3cc(OC)ccc3nc2s1)c1ccccc1 6.16%
O=C(CSC1=Nc2ccccc2C2=NC(CCC(=O)NC3CCCCC3)C(=O)N12)Nc1cccc(Cl)c1 (stereo unspecified) -22.7%
CCOC(=O)C1CCC(CN(Cc2c(Cl)cccc2Cl)S(=O)(=O)c2ccc(F)c(C)c2)CC1 (stereo unspecified) -20.9%
COc1cccc(NC(=O)CCNS(=O)(=O)c2ccc3c(c2)CCCC(=O)N3)c1 8.54%
CCOC(=O)c1c(C)[nH]c(C)c1S(=O)(=O)N(C)CC(=O)Nc1cc(Cl)ccc1OC -23.8%
